Experimental data reported in the supplement of paper PMC11098506.
± gives the standard deviation of the averaged measurements.

B1: VDAC2; numbered along this chain (parent)
chain: MATHGQTCARPMCIPPSYADLGKAARDIFNKGFGFGLVKLDVKTKSCSGVEFSTSGSSNTDTGKVTGTLETKYKWCEYGLTFTEKWNTDNTLGTEIAIEDQICQGLKLTFDTTFSPNTGKKSGKIKSSYKRECINLGCDVDFDFAGPAIHGSAVFGYEGWLAGYQMTFDSAKSKLTRNNFAVGYRTGDFQLHTNVNDGTEFGGSIYQKVCEDLDTSVNLAWTSGTNCTRFGIAAKYQLDPTASISAKVNNSSLIGVGYTQTLRPGVKLTLSALVDGKSINAGGHKVGLALELEA

Variants of: B1
Assay: log2 fold difference of barcode abundance, FLAG-VDAC2-high vs FLAG-VDAC2-low sorted fraction (expression level) (log2 ratio); higher = higher VDAC2 variant expression
Details: Mcl1-/- Bax-/- Vdac2-/- MEF
Description: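 Deep mutational scan of human VDAC2 (FLAG-tagged) with single amino acid substitutions at positions Q165–F180, each barcoded clone expressed in Mcl1/Bax/Vdac2-deficient MEFs. Cells were stained with PE anti-FLAG and sorted into FLAG-high and FLAG-low fractions, and barcodes were counted by Illumina sequencing. The score is log2(CPM) in FLAG-high minus log2(CPM) in FLAG-low, per barcode; barcodes of the same variant are averaged.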

Variant | log2 fold difference
MATHGQTCARPMCIPPSYADLGKAARDIFNKGFGFGLVKLDVKTKSCSGVEFSTSGSSNTDTGKVTGTLETKYKWCEYGLTFTEKWNTDNTLGTEIAIEDQICQGLKLTFDTTFSPNTGKKSGKIKSSYKRECINLGCDVDFDFAGPAIHGSAVFGYEGWLAGYAMTFDSAKSKLTRNNFAVGYRTGDFQLHTNVNDGTEFGGSIYQKVCEDLDTSVNLAWTSGTNCTRFGIAAKYQLDPTASISAKVNNSSLIGVGYTQTLRPGVKLTLSALVDGKSINAGGHKVGLALELEA [Q165A] | 0.624 ± 1.8
MATHGQTCARPMCIPPSYADLGKAARDIFNKGFGFGLVKLDVKTKSCSGVEFSTSGSSNTDTGKVTGTLETKYKWCEYGLTFTEKWNTDNTLGTEIAIEDQICQGLKLTFDTTFSPNTGKKSGKIKSSYKRECINLGCDVDFDFAGPAIHGSAVFGYEGWLAGYCMTFDSAKSKLTRNNFAVGYRTGDFQLHTNVNDGTEFGGSIYQKVCEDLDTSVNLAWTSGTNCTRFGIAAKYQLDPTASISAKVNNSSLIGVGYTQTLRPGVKLTLSALVDGKSINAGGHKVGLALELEA [Q165C] | 1.08 ± 1.3
MATHGQTCARPMCIPPSYADLGKAARDIFNKGFGFGLVKLDVKTKSCSGVEFSTSGSSNTDTGKVTGTLETKYKWCEYGLTFTEKWNTDNTLGTEIAIEDQICQGLKLTFDTTFSPNTGKKSGKIKSSYKRECINLGCDVDFDFAGPAIHGSAVFGYEGWLAGYDMTFDSAKSKLTRNNFAVGYRTGDFQLHTNVNDGTEFGGSIYQKVCEDLDTSVNLAWTSGTNCTRFGIAAKYQLDPTASISAKVNNSSLIGVGYTQTLRPGVKLTLSALVDGKSINAGGHKVGLALELEA [Q165D] | 1.62 ± 1.7
MATHGQTCARPMCIPPSYADLGKAARDIFNKGFGFGLVKLDVKTKSCSGVEFSTSGSSNTDTGKVTGTLETKYKWCEYGLTFTEKWNTDNTLGTEIAIEDQICQGLKLTFDTTFSPNTGKKSGKIKSSYKRECINLGCDVDFDFAGPAIHGSAVFGYEGWLAGYEMTFDSAKSKLTRNNFAVGYRTGDFQLHTNVNDGTEFGGSIYQKVCEDLDTSVNLAWTSGTNCTRFGIAAKYQLDPTASISAKVNNSSLIGVGYTQTLRPGVKLTLSALVDGKSINAGGHKVGLALELEA [Q165E] | 1.93 ± 2.5
MATHGQTCARPMCIPPSYADLGKAARDIFNKGFGFGLVKLDVKTKSCSGVEFSTSGSSNTDTGKVTGTLETKYKWCEYGLTFTEKWNTDNTLGTEIAIEDQICQGLKLTFDTTFSPNTGKKSGKIKSSYKRECINLGCDVDFDFAGPAIHGSAVFGYEGWLAGYFMTFDSAKSKLTRNNFAVGYRTGDFQLHTNVNDGTEFGGSIYQKVCEDLDTSVNLAWTSGTNCTRFGIAAKYQLDPTASISAKVNNSSLIGVGYTQTLRPGVKLTLSALVDGKSINAGGHKVGLALELEA [Q165F] | 1.17 ± 1.5
MATHGQTCARPMCIPPSYADLGKAARDIFNKGFGFGLVKLDVKTKSCSGVEFSTSGSSNTDTGKVTGTLETKYKWCEYGLTFTEKWNTDNTLGTEIAIEDQICQGLKLTFDTTFSPNTGKKSGKIKSSYKRECINLGCDVDFDFAGPAIHGSAVFGYEGWLAGYGMTFDSAKSKLTRNNFAVGYRTGDFQLHTNVNDGTEFGGSIYQKVCEDLDTSVNLAWTSGTNCTRFGIAAKYQLDPTASISAKVNNSSLIGVGYTQTLRPGVKLTLSALVDGKSINAGGHKVGLALELEA [Q165G] | 0.675 ± 2.1
MATHGQTCARPMCIPPSYADLGKAARDIFNKGFGFGLVKLDVKTKSCSGVEFSTSGSSNTDTGKVTGTLETKYKWCEYGLTFTEKWNTDNTLGTEIAIEDQICQGLKLTFDTTFSPNTGKKSGKIKSSYKRECINLGCDVDFDFAGPAIHGSAVFGYEGWLAGYHMTFDSAKSKLTRNNFAVGYRTGDFQLHTNVNDGTEFGGSIYQKVCEDLDTSVNLAWTSGTNCTRFGIAAKYQLDPTASISAKVNNSSLIGVGYTQTLRPGVKLTLSALVDGKSINAGGHKVGLALELEA [Q165H] | 2.68 ± 2.7
MATHGQTCARPMCIPPSYADLGKAARDIFNKGFGFGLVKLDVKTKSCSGVEFSTSGSSNTDTGKVTGTLETKYKWCEYGLTFTEKWNTDNTLGTEIAIEDQICQGLKLTFDTTFSPNTGKKSGKIKSSYKRECINLGCDVDFDFAGPAIHGSAVFGYEGWLAGYIMTFDSAKSKLTRNNFAVGYRTGDFQLHTNVNDGTEFGGSIYQKVCEDLDTSVNLAWTSGTNCTRFGIAAKYQLDPTASISAKVNNSSLIGVGYTQTLRPGVKLTLSALVDGKSINAGGHKVGLALELEA [Q165I] | -0.0417 ± 1
MATHGQTCARPMCIPPSYADLGKAARDIFNKGFGFGLVKLDVKTKSCSGVEFSTSGSSNTDTGKVTGTLETKYKWCEYGLTFTEKWNTDNTLGTEIAIEDQICQGLKLTFDTTFSPNTGKKSGKIKSSYKRECINLGCDVDFDFAGPAIHGSAVFGYEGWLAGYKMTFDSAKSKLTRNNFAVGYRTGDFQLHTNVNDGTEFGGSIYQKVCEDLDTSVNLAWTSGTNCTRFGIAAKYQLDPTASISAKVNNSSLIGVGYTQTLRPGVKLTLSALVDGKSINAGGHKVGLALELEA [Q165K] | 2.95 ± 2.8
MATHGQTCARPMCIPPSYADLGKAARDIFNKGFGFGLVKLDVKTKSCSGVEFSTSGSSNTDTGKVTGTLETKYKWCEYGLTFTEKWNTDNTLGTEIAIEDQICQGLKLTFDTTFSPNTGKKSGKIKSSYKRECINLGCDVDFDFAGPAIHGSAVFGYEGWLAGYLMTFDSAKSKLTRNNFAVGYRTGDFQLHTNVNDGTEFGGSIYQKVCEDLDTSVNLAWTSGTNCTRFGIAAKYQLDPTASISAKVNNSSLIGVGYTQTLRPGVKLTLSALVDGKSINAGGHKVGLALELEA [Q165L] | 1.41 ± 2.4
MATHGQTCARPMCIPPSYADLGKAARDIFNKGFGFGLVKLDVKTKSCSGVEFSTSGSSNTDTGKVTGTLETKYKWCEYGLTFTEKWNTDNTLGTEIAIEDQICQGLKLTFDTTFSPNTGKKSGKIKSSYKRECINLGCDVDFDFAGPAIHGSAVFGYEGWLAGYMMTFDSAKSKLTRNNFAVGYRTGDFQLHTNVNDGTEFGGSIYQKVCEDLDTSVNLAWTSGTNCTRFGIAAKYQLDPTASISAKVNNSSLIGVGYTQTLRPGVKLTLSALVDGKSINAGGHKVGLALELEA [Q165M] | 1.64 ± 1.4
MATHGQTCARPMCIPPSYADLGKAARDIFNKGFGFGLVKLDVKTKSCSGVEFSTSGSSNTDTGKVTGTLETKYKWCEYGLTFTEKWNTDNTLGTEIAIEDQICQGLKLTFDTTFSPNTGKKSGKIKSSYKRECINLGCDVDFDFAGPAIHGSAVFGYEGWLAGYNMTFDSAKSKLTRNNFAVGYRTGDFQLHTNVNDGTEFGGSIYQKVCEDLDTSVNLAWTSGTNCTRFGIAAKYQLDPTASISAKVNNSSLIGVGYTQTLRPGVKLTLSALVDGKSINAGGHKVGLALELEA [Q165N] | 1.85 ± 2.4
MATHGQTCARPMCIPPSYADLGKAARDIFNKGFGFGLVKLDVKTKSCSGVEFSTSGSSNTDTGKVTGTLETKYKWCEYGLTFTEKWNTDNTLGTEIAIEDQICQGLKLTFDTTFSPNTGKKSGKIKSSYKRECINLGCDVDFDFAGPAIHGSAVFGYEGWLAGYPMTFDSAKSKLTRNNFAVGYRTGDFQLHTNVNDGTEFGGSIYQKVCEDLDTSVNLAWTSGTNCTRFGIAAKYQLDPTASISAKVNNSSLIGVGYTQTLRPGVKLTLSALVDGKSINAGGHKVGLALELEA [Q165P] | -1.97 ± 2
MATHGQTCARPMCIPPSYADLGKAARDIFNKGFGFGLVKLDVKTKSCSGVEFSTSGSSNTDTGKVTGTLETKYKWCEYGLTFTEKWNTDNTLGTEIAIEDQICQGLKLTFDTTFSPNTGKKSGKIKSSYKRECINLGCDVDFDFAGPAIHGSAVFGYEGWLAGYRMTFDSAKSKLTRNNFAVGYRTGDFQLHTNVNDGTEFGGSIYQKVCEDLDTSVNLAWTSGTNCTRFGIAAKYQLDPTASISAKVNNSSLIGVGYTQTLRPGVKLTLSALVDGKSINAGGHKVGLALELEA [Q165R] | 1.24 ± 1.1
MATHGQTCARPMCIPPSYADLGKAARDIFNKGFGFGLVKLDVKTKSCSGVEFSTSGSSNTDTGKVTGTLETKYKWCEYGLTFTEKWNTDNTLGTEIAIEDQICQGLKLTFDTTFSPNTGKKSGKIKSSYKRECINLGCDVDFDFAGPAIHGSAVFGYEGWLAGYSMTFDSAKSKLTRNNFAVGYRTGDFQLHTNVNDGTEFGGSIYQKVCEDLDTSVNLAWTSGTNCTRFGIAAKYQLDPTASISAKVNNSSLIGVGYTQTLRPGVKLTLSALVDGKSINAGGHKVGLALELEA [Q165S] | 1.78 ± 1.9
MATHGQTCARPMCIPPSYADLGKAARDIFNKGFGFGLVKLDVKTKSCSGVEFSTSGSSNTDTGKVTGTLETKYKWCEYGLTFTEKWNTDNTLGTEIAIEDQICQGLKLTFDTTFSPNTGKKSGKIKSSYKRECINLGCDVDFDFAGPAIHGSAVFGYEGWLAGYTMTFDSAKSKLTRNNFAVGYRTGDFQLHTNVNDGTEFGGSIYQKVCEDLDTSVNLAWTSGTNCTRFGIAAKYQLDPTASISAKVNNSSLIGVGYTQTLRPGVKLTLSALVDGKSINAGGHKVGLALELEA [Q165T] | 1.2 ± 1.9
MATHGQTCARPMCIPPSYADLGKAARDIFNKGFGFGLVKLDVKTKSCSGVEFSTSGSSNTDTGKVTGTLETKYKWCEYGLTFTEKWNTDNTLGTEIAIEDQICQGLKLTFDTTFSPNTGKKSGKIKSSYKRECINLGCDVDFDFAGPAIHGSAVFGYEGWLAGYVMTFDSAKSKLTRNNFAVGYRTGDFQLHTNVNDGTEFGGSIYQKVCEDLDTSVNLAWTSGTNCTRFGIAAKYQLDPTASISAKVNNSSLIGVGYTQTLRPGVKLTLSALVDGKSINAGGHKVGLALELEA [Q165V] | 0.91 ± 2
MATHGQTCARPMCIPPSYADLGKAARDIFNKGFGFGLVKLDVKTKSCSGVEFSTSGSSNTDTGKVTGTLETKYKWCEYGLTFTEKWNTDNTLGTEIAIEDQICQGLKLTFDTTFSPNTGKKSGKIKSSYKRECINLGCDVDFDFAGPAIHGSAVFGYEGWLAGYWMTFDSAKSKLTRNNFAVGYRTGDFQLHTNVNDGTEFGGSIYQKVCEDLDTSVNLAWTSGTNCTRFGIAAKYQLDPTASISAKVNNSSLIGVGYTQTLRPGVKLTLSALVDGKSINAGGHKVGLALELEA [Q165W] | 0.623 ± 1.6
MATHGQTCARPMCIPPSYADLGKAARDIFNKGFGFGLVKLDVKTKSCSGVEFSTSGSSNTDTGKVTGTLETKYKWCEYGLTFTEKWNTDNTLGTEIAIEDQICQGLKLTFDTTFSPNTGKKSGKIKSSYKRECINLGCDVDFDFAGPAIHGSAVFGYEGWLAGYYMTFDSAKSKLTRNNFAVGYRTGDFQLHTNVNDGTEFGGSIYQKVCEDLDTSVNLAWTSGTNCTRFGIAAKYQLDPTASISAKVNNSSLIGVGYTQTLRPGVKLTLSALVDGKSINAGGHKVGLALELEA [Q165Y] | 2.98 ± 1.9
MATHGQTCARPMCIPPSYADLGKAARDIFNKGFGFGLVKLDVKTKSCSGVEFSTSGSSNTDTGKVTGTLETKYKWCEYGLTFTEKWNTDNTLGTEIAIEDQICQGLKLTFDTTFSPNTGKKSGKIKSSYKRECINLGCDVDFDFAGPAIHGSAVFGYEGWLAGYQATFDSAKSKLTRNNFAVGYRTGDFQLHTNVNDGTEFGGSIYQKVCEDLDTSVNLAWTSGTNCTRFGIAAKYQLDPTASISAKVNNSSLIGVGYTQTLRPGVKLTLSALVDGKSINAGGHKVGLALELEA [M166A] | 1.04 ± 2.4
